Test results published in publication PMC5030362.
No constants are given. Whether binding was seen depends on the method and setting. Binding seen in cells or lysates may run through a third protein. Some results given as binding are weak or reduced against the parent protein; the word gives no strength. For some of these results: Where a sequence is shown, tags or fusion partners need not be part of it.

Chains of the proteins cited; added tags and fusions are not shown.
UniProt P03129: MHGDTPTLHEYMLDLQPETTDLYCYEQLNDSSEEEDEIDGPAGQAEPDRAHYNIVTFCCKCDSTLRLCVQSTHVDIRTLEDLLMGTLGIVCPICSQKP
UniProt P06788: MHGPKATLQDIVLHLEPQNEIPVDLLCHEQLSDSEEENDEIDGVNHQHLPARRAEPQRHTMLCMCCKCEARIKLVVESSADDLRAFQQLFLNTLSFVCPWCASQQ
UniProt Q5T4S7: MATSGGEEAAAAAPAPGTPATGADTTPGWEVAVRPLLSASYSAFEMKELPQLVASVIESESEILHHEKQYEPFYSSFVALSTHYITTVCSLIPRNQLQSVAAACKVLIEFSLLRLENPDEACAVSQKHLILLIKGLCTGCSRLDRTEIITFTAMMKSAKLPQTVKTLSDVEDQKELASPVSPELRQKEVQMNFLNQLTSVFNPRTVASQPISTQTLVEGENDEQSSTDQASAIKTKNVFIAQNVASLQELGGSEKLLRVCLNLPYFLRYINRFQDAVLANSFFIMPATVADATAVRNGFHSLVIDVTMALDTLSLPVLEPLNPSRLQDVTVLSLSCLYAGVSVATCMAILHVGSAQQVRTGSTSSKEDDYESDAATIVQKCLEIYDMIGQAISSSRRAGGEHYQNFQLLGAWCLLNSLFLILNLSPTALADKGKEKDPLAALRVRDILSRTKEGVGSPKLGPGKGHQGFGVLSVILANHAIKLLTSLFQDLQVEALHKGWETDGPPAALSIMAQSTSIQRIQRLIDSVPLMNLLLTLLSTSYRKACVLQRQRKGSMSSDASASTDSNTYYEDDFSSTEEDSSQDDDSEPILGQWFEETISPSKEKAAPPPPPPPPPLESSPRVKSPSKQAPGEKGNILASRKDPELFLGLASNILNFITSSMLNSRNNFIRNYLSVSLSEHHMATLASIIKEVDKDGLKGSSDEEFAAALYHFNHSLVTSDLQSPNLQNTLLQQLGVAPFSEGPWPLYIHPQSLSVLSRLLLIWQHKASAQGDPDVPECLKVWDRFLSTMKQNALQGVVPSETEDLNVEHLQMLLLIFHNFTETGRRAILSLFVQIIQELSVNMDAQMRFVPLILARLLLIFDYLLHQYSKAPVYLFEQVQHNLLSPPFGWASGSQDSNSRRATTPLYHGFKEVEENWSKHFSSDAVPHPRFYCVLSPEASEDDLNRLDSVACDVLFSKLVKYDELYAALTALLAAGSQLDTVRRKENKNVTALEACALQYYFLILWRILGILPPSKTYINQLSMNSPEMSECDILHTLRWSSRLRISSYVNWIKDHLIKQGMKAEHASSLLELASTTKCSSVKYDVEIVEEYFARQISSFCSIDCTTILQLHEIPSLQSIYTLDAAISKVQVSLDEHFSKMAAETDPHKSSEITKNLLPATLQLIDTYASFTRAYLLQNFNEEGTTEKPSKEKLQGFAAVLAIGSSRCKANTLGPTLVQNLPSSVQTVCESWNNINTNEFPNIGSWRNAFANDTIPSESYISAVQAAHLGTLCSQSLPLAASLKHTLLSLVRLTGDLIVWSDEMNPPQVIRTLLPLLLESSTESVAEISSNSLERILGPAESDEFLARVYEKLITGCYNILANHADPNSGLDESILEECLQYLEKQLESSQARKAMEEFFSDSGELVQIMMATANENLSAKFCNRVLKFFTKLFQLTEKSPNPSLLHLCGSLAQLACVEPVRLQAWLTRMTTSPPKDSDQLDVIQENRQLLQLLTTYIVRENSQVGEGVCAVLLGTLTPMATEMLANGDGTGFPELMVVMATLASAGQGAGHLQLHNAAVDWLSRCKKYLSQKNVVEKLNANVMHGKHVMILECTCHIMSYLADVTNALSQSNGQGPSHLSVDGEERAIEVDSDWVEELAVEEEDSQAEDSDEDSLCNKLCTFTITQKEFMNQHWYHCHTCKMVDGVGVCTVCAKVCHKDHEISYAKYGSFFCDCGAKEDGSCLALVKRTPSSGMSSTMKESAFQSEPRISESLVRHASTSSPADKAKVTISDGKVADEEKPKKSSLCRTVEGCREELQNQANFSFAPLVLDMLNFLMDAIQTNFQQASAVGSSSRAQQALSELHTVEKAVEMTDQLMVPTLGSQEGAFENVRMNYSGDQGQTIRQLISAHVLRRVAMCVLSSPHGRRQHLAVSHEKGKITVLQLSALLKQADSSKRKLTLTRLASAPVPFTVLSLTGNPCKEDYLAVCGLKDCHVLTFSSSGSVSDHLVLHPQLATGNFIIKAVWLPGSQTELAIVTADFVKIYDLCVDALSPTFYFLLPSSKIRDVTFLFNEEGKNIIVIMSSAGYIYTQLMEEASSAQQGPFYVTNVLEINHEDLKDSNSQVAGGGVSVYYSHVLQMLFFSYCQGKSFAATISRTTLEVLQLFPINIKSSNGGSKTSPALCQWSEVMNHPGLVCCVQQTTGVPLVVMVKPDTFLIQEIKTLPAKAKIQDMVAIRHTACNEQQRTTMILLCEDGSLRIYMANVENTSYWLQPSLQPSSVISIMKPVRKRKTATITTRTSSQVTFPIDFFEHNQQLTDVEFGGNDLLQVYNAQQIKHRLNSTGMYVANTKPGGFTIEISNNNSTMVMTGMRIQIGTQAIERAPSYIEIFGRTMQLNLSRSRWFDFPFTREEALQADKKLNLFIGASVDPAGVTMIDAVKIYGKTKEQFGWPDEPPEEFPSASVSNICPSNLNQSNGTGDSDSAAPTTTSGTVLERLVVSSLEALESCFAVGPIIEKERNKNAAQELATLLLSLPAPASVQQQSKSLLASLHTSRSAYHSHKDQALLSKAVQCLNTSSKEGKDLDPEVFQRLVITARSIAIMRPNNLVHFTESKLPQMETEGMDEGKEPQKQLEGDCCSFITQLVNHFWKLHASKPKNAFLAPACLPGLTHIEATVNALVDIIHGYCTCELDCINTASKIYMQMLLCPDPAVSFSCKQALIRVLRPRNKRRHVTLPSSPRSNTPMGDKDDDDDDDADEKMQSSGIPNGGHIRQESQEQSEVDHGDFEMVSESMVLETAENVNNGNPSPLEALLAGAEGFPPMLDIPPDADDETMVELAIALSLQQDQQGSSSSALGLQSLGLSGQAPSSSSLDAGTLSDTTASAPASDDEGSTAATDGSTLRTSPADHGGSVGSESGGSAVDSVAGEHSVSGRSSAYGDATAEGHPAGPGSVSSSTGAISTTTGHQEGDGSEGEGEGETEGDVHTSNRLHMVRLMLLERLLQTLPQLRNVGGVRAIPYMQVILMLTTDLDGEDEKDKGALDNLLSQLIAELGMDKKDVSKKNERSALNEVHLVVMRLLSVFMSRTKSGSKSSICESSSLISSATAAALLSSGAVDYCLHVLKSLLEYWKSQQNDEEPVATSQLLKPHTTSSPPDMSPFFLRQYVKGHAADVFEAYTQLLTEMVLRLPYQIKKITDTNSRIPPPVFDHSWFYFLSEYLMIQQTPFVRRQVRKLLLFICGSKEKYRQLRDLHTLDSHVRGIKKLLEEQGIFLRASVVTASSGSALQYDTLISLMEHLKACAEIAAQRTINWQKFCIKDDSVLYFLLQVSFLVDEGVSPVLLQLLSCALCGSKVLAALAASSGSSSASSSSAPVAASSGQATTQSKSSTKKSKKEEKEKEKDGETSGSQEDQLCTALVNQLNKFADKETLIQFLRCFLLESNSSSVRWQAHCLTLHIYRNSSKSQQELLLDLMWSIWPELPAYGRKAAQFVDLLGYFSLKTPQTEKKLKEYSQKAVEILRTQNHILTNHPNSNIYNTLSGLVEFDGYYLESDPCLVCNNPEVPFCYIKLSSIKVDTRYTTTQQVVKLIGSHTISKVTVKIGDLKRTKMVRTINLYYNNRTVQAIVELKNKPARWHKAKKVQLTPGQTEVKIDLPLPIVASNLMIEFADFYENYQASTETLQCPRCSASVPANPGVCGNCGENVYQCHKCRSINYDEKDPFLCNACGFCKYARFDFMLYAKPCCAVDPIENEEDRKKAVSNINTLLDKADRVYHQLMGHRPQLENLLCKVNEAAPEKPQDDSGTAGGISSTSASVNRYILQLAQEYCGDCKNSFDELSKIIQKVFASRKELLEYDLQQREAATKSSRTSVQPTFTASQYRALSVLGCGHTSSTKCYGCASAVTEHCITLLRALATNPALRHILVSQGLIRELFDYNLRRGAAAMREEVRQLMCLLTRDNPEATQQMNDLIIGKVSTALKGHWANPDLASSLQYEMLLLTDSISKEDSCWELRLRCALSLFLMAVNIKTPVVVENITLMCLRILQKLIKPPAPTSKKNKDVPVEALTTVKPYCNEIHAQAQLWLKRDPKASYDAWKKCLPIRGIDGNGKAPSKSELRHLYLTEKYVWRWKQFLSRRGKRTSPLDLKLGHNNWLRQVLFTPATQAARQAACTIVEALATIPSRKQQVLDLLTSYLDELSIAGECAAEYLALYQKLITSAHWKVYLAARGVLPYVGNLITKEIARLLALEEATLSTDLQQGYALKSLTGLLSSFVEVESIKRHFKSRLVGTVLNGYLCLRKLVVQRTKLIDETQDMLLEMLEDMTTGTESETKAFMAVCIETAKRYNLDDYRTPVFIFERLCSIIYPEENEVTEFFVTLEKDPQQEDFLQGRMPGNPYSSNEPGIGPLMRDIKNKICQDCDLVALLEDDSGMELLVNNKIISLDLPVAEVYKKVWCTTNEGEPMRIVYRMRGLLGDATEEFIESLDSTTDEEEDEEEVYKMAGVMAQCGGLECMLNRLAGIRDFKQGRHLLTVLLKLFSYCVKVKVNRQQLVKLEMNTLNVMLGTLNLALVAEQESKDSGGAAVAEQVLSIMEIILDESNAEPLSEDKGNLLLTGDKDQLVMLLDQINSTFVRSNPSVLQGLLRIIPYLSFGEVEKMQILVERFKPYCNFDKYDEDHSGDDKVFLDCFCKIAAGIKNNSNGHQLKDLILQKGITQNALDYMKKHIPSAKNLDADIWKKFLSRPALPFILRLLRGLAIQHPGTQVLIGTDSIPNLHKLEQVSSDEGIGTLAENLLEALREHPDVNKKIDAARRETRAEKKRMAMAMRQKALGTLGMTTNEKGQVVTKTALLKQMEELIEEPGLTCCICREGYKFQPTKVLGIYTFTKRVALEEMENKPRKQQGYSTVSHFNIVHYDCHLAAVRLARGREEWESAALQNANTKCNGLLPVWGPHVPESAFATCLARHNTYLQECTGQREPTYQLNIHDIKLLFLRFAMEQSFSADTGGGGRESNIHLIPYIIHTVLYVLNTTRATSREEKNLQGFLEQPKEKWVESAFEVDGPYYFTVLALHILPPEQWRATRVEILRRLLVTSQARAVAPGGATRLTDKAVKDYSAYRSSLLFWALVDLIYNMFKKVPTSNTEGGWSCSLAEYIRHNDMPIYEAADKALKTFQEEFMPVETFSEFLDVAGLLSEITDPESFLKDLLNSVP

Key:
[1] = molecular target: HPV16 E7-Flag-HA, wild type (human papillomavirus type 16) (UniProt P03129); assay: co-IP; N/Tert-1 E7-Flag-HA cells transduced with V5-tagged PTPN14 forms or fragments, harvested 48 h posttransduction; anti-HA immunoprecipitation, Western blot for V5 or PTPN14
[2] = molecular target: HPV16 E7-Flag-HA, wild type (human papillomavirus type 16) (UniProt P03129); assay: co-IP; anti-HA agarose immunoprecipitation of HA-tagged E7 from N/Tert-1 cell lysates; endogenous partners detected by Western blot
[3] = molecular target: T1, HPV1a E7 tagged with Flag and HA (human papillomavirus type 1a) (UniProt P06465); assay: as above
T1 sequence: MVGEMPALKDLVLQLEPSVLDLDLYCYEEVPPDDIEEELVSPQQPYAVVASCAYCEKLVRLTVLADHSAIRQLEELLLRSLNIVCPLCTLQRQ

[4] = molecular target: HPV16 E7-Flag-HA, wild type (human papillomavirus type 16) (UniProt P03129); assay: SEC + co-IP; N/Tert-1 E7 lysate (MCLB: 50 mM Tris pH 7.8, 150 mM NaCl, 0.5% NP-40) fractionated on Superose 6 10/300; even-numbered 0.5-ml fractions used for anti-HA immunoprecipitation, Western blot
[5] = molecular target: HPV18 E7-Flag-HA, wild type (human papillomavirus type 18) (UniProt P06788); assay: co-IP; N/Tert-1 E7-Flag-HA cells transduced with V5-tagged PTPN14 forms or fragments, harvested 48 h posttransduction; anti-HA immunoprecipitation, Western blot for V5 or PTPN14

In the case of “PTPN14 ΔLinker 1, N-terminal V5 tag (from UniProt Q15678 1-1187)”, the binding [1] is reported as “binds”.

For “PTPN14 ΔLinker 3, N-terminal V5 tag (from UniProt Q15678 1-1187)”, the binding [1] was “binds”.

For “PTPN14 ΔPTP, N-terminal V5 tag (from UniProt Q15678 1-899) (domain or fragment)”, the binding [1] was “no binding”.

With “UBR4, endogenous (from UniProt Q5T4S7 1-5183)” the binding [2] was “binds”, the binding [3] was “no binding” and the binding [4] was “binds”.

“PTPN14 L2 domain fragment, V5-tagged (from UniProt Q15678 501-801) (domain or fragment)” was tested, and the binding [5] was “no binding”.

In the case of “PTPN14 ΔFERM, N-terminal V5 tag (from UniProt Q15678 342-1187) (domain or fragment)”, the binding [1] is reported as “binds”.

For “PTPN14 PTP domain fragment, V5-tagged (from UniProt Q15678 900-1187) (domain or fragment)”, the binding [5] was “binds”.

B1: full-length PTPN14 with an N-terminal V5 tag (protein, UniProt Q15678 1-1187)
chain: MPFGLKLRRTRRYNVLSKNCFVTRIRLLDSNVIECTLSVESTGQECLEAVAQRLELRETHYFGLWFLSKSQQARWVELEKPLKKHLDKFANEPLLFFGVMFYVPNVSWLQQEATRYQYYLQVKKDVLEGRLRCTLDQVIRLAGLAVQADFGDYNQFDSQDFLREYVLFPMDLALEEAVLEELTQKVAQEHKAHSGILPAEAELMYINEVERLDGFGQEIFPVKDNHGNCVHLGIFFMGIFVRNRIGRQAVIYRWNDMGNITHNKSTILVELINKEETALFHTDDIENAKYISRLFATRHKFYKQNKICTEQSNSPPPIRRQPTWSRSSLPRQQPYILPPVHVQCGEHYSETHTSQDSIFHGNEEALYCNSHNSLDLNYLNGTVTNGSVCSVHSVNSLNCSQSFIQASPVSSNLSIPGSDIMRADYIPSHRHSAIIVPSYRPTPDYETVMRQMKRGILHTDSQSQSLRNLNIINTHAYNQPEDLVYSQPEMRERHPYTVPYGPQGVYSNKLVSPSDQRNPKNNVVPSKPGASAISHTVSTPELANMQLQGSHNYSTAHMLKNYLFRPPPPYPRPRPATSTPDLASHRHKYVSGSSPDLVTRKVQLSVKTFQEDSSPVVHQSLQEVSEPLTATKHHGTVNKRHSLEVMNSMVRGMEAMTLKSLHLPMARRNTLREQGPPEEGSGSHEVPQLPQYHHKKTFSDATMLIHSSESEEEEEEAPESVPQIPMLREKMEYSAQLQAALARIPNKPPPEYPGPRKSVSNGALRQDQASLPPAMARARVLRHGPAKAISMSRTDPPAVNGASLGPSISEPDLTSVKERVKKEPVKERPVSEMFSLEDSIIEREMMIRNLEKQKMAGLEAQKRPLMLAALNGLSVARVSGREENRVDATRVPMDERFRTLKKKLEEGMVFTEYEQIPKKKANGIFSTAALPENAERSRIREVVPYEENRVELIPTKENNTGYINASHIKVVVGGAEWHYIATQGPLPHTCHDFWQMVWEQGVNVIAMVTAEEEGGRTKSHRYWPKLGSKHSSATYGKFKVTTKFRTDSVCYATTGLKVKHLLSGQERTVWHLQYTDWPDHGCPEDVQGFLSYLEEIQSVRRHTNSMLEGTKNRHPPIVVHCSAGVGRTGVLILSELMIYCLEHNEKVEVPMMLRLLREQRMFMIQTIAQYKFVYQVLIQFLQNSRLI
B1 was tested, and the binding [1] was “binds”.

B2: full-length PTPN14 with a C-terminal V5 tag (protein, UniProt Q15678 1-1187)
chain: MPFGLKLRRTRRYNVLSKNCFVTRIRLLDSNVIECTLSVESTGQECLEAVAQRLELRETHYFGLWFLSKSQQARWVELEKPLKKHLDKFANEPLLFFGVMFYVPNVSWLQQEATRYQYYLQVKKDVLEGRLRCTLDQVIRLAGLAVQADFGDYNQFDSQDFLREYVLFPMDLALEEAVLEELTQKVAQEHKAHSGILPAEAELMYINEVERLDGFGQEIFPVKDNHGNCVHLGIFFMGIFVRNRIGRQAVIYRWNDMGNITHNKSTILVELINKEETALFHTDDIENAKYISRLFATRHKFYKQNKICTEQSNSPPPIRRQPTWSRSSLPRQQPYILPPVHVQCGEHYSETHTSQDSIFHGNEEALYCNSHNSLDLNYLNGTVTNGSVCSVHSVNSLNCSQSFIQASPVSSNLSIPGSDIMRADYIPSHRHSAIIVPSYRPTPDYETVMRQMKRGILHTDSQSQSLRNLNIINTHAYNQPEDLVYSQPEMRERHPYTVPYGPQGVYSNKLVSPSDQRNPKNNVVPSKPGASAISHTVSTPELANMQLQGSHNYSTAHMLKNYLFRPPPPYPRPRPATSTPDLASHRHKYVSGSSPDLVTRKVQLSVKTFQEDSSPVVHQSLQEVSEPLTATKHHGTVNKRHSLEVMNSMVRGMEAMTLKSLHLPMARRNTLREQGPPEEGSGSHEVPQLPQYHHKKTFSDATMLIHSSESEEEEEEAPESVPQIPMLREKMEYSAQLQAALARIPNKPPPEYPGPRKSVSNGALRQDQASLPPAMARARVLRHGPAKAISMSRTDPPAVNGASLGPSISEPDLTSVKERVKKEPVKERPVSEMFSLEDSIIEREMMIRNLEKQKMAGLEAQKRPLMLAALNGLSVARVSGREENRVDATRVPMDERFRTLKKKLEEGMVFTEYEQIPKKKANGIFSTAALPENAERSRIREVVPYEENRVELIPTKENNTGYINASHIKVVVGGAEWHYIATQGPLPHTCHDFWQMVWEQGVNVIAMVTAEEEGGRTKSHRYWPKLGSKHSSATYGKFKVTTKFRTDSVCYATTGLKVKHLLSGQERTVWHLQYTDWPDHGCPEDVQGFLSYLEEIQSVRRHTNSMLEGTKNRHPPIVVHCSAGVGRTGVLILSELMIYCLEHNEKVEVPMMLRLLREQRMFMIQTIAQYKFVYQVLIQFLQNSRLI
For B2, the binding [1] was “binds”.

B3: PTPN14, endogenous (protein, UniProt Q15678 1-1187)
chain: MPFGLKLRRTRRYNVLSKNCFVTRIRLLDSNVIECTLSVESTGQECLEAVAQRLELRETHYFGLWFLSKSQQARWVELEKPLKKHLDKFANEPLLFFGVMFYVPNVSWLQQEATRYQYYLQVKKDVLEGRLRCTLDQVIRLAGLAVQADFGDYNQFDSQDFLREYVLFPMDLALEEAVLEELTQKVAQEHKAHSGILPAEAELMYINEVERLDGFGQEIFPVKDNHGNCVHLGIFFMGIFVRNRIGRQAVIYRWNDMGNITHNKSTILVELINKEETALFHTDDIENAKYISRLFATRHKFYKQNKICTEQSNSPPPIRRQPTWSRSSLPRQQPYILPPVHVQCGEHYSETHTSQDSIFHGNEEALYCNSHNSLDLNYLNGTVTNGSVCSVHSVNSLNCSQSFIQASPVSSNLSIPGSDIMRADYIPSHRHSAIIVPSYRPTPDYETVMRQMKRGILHTDSQSQSLRNLNIINTHAYNQPEDLVYSQPEMRERHPYTVPYGPQGVYSNKLVSPSDQRNPKNNVVPSKPGASAISHTVSTPELANMQLQGSHNYSTAHMLKNYLFRPPPPYPRPRPATSTPDLASHRHKYVSGSSPDLVTRKVQLSVKTFQEDSSPVVHQSLQEVSEPLTATKHHGTVNKRHSLEVMNSMVRGMEAMTLKSLHLPMARRNTLREQGPPEEGSGSHEVPQLPQYHHKKTFSDATMLIHSSESEEEEEEAPESVPQIPMLREKMEYSAQLQAALARIPNKPPPEYPGPRKSVSNGALRQDQASLPPAMARARVLRHGPAKAISMSRTDPPAVNGASLGPSISEPDLTSVKERVKKEPVKERPVSEMFSLEDSIIEREMMIRNLEKQKMAGLEAQKRPLMLAALNGLSVARVSGREENRVDATRVPMDERFRTLKKKLEEGMVFTEYEQIPKKKANGIFSTAALPENAERSRIREVVPYEENRVELIPTKENNTGYINASHIKVVVGGAEWHYIATQGPLPHTCHDFWQMVWEQGVNVIAMVTAEEEGGRTKSHRYWPKLGSKHSSATYGKFKVTTKFRTDSVCYATTGLKVKHLLSGQERTVWHLQYTDWPDHGCPEDVQGFLSYLEEIQSVRRHTNSMLEGTKNRHPPIVVHCSAGVGRTGVLILSELMIYCLEHNEKVEVPMMLRLLREQRMFMIQTIAQYKFVYQVLIQFLQNSRLI
In the case of B3, the binding [2] is reported as “binds”, the binding [4] is reported as “binds” and the binding [5] is reported as “binds”.

B4: RB1, endogenous (protein, UniProt P06400 1-928)
chain: MPPKTPRKTAATAAAAAAEPPAPPPPPPPEEDPEQDSGPEDLPLVRLEFEETEEPDFTALCQKLKIPDHVRERAWLTWEKVSSVDGVLGGYIQKKKELWGICIFIAAVDLDEMSFTFTELQKNIEISVHKFFNLLKEIDTSTKVDNAMSRLLKKYDVLFALFSKLERTCELIYLTQPSSSISTEINSALVLKVSWITFLLAKGEVLQMEDDLVISFQLMLCVLDYFIKLSPPMLLKEPYKTAVIPINGSPRTPRRGQNRSARIAKQLENDTRIIEVLCKEHECNIDEVKNVYFKNFIPFMNSLGLVTSNGLPEVENLSKRYEEIYLKNKDLDARLFLDHDKTLQTDSIDSFETQRTPRKSNLDEEVNVIPPHTPVRTVMNTIQQLMMILNSASDQPSENLISYFNNCTVNPKESILKRVKDIGYIFKEKFAKAVGQGCVEIGSQRYKLGVRLYYRVMESMLKSEEERLSIQNFSKLLNDNIFHMSLLACALEVVMATYSRSTSQNLDSGTDLSFPWILNVLNLKAFDFYKVIESFIKAEGNLTREMIKHLERCEHRIMESLAWLSDSPLFDLIKQSKDREGPTDHLESACPLNLPLQNNHTAADMYLSPVRSPKKKGSTTRVNSTANAETQATSAFQTQKPLKSTSLSLFYKKVYRLAYLRLNTLCERLLSEHPELEHIIWTLFQHTLQNEYELMRDRHLDQIMMCSMYGICKVKNIDLKFKIIVTAYKDLPHAVQETFKRVLIKEEEYDSIIVFYNSVFMQRLKTNILQYASTRPPTLSPIPHIPRSPYKFPSSPLRIPGGNIYISPLKSPYKISEGLPTPTKMTPRSRILVSIGESFGTSEKFQKINQMVCNSDRVLKRSAEGSNPPKPLKKLRFDIEGSDEADGSKHLPGESKFQQKLAEMTSTRTRMQKQKMNDSMDTSNKEEK
B4 was tested, and the binding [2] was “binds” and the binding [4] was “binds”.
